# From PubChem BioAssay AID894 (National Center for Advancing Translational Sciences (NCATS), 2007)
# Among all 150,000 compounds or so, about 6,500 (4.3%) were called active. The inconclusive results got no clear call from the source; some entries with a clear call stand among them for comparison. Calls follow the shape of the dose curve; as a rule, active = well fitted inhibition curve with a large enough effect (not every such curve was filed as active); inconclusive = small, poorly fitted or top-dose-only effect, or another doubt; inactive = no such curve, though single readings can be large or run the other way. No potency is given beside an inconclusive call; the fits are too rough.
# Biological target: 15-hydroxyprostaglandin dehydrogenase [NAD(+)] (Homo sapiens) (UniProt P15428)
# Test: qHTS Assay for Inhibitors of HPGD (15-Hydroxyprostaglandin Dehydrogenase)
# Settings: purified HPGD, NADH fluorescence kinetic, PGE2 substrate; activity change, negative = inhibition: hits give low values
# Method in brief: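 20 nM HPGD preincubated 15 min at room temperature with compound in 50 mM Tris-HCl pH 8, 0.01% Tween 20. Started with 1 mM NAD+ and 30 uM prostaglandin E2; NADH fluorescence (360/450 nm) read 5 times over 30-s intervals, last minus first.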
# % is scaled to controls: 0 for no effect and ±100 for the full control effect; potency is read from the fitted curve at half-maximal effect; tags tell the direction and shape of the fitted curve.
# Chain of UniProt P15428 (P15428 whole entry, looked up): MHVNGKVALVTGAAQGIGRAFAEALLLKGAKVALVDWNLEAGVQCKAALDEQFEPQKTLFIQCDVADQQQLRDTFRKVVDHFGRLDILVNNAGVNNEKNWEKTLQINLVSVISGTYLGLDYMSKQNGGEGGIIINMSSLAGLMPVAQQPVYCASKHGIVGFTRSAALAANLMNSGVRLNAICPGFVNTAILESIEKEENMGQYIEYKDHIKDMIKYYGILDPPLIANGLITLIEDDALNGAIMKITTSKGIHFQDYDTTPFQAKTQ
Compound,Potency,"activity change, negative = inhibition"
COc1ccc(C)cc1Nc1cc(C)nc2ncnn12,active: 5.01 µM,–
c1ccc(-n2nnnc2SCc2cccc3nsnc23)cc1,"inconclusive [inhibitor, partial curve]",–
O=C(O)c1ccc(CSc2nnc(Cc3ccccc3)o2)cc1,"inconclusive [inhibitor, partial curve, poor fit]",–
COc1cccc(-c2[nH]nc3c2C(c2ccsc2)C(C#N)=C(N)O3)c1 (stereo not drawn),"inconclusive [inhibitor, partial curve]",–
CCc1cc(=O)oc2cc(C)cc(OC(=O)c3ccco3)c12,–,inactive: 0.368%
CCOC(=O)Cn1nc(/C=C/c2ccccc2)ccc1=O,"inconclusive [inhibitor, partial curve]",–
O=C(Nc1ccc(N2CCCC(O)C2)cc1)c1snc2c(=O)[nH]cnc12 (stereo not drawn),"inconclusive [inhibitor, partial curve]",–
O=C(CCCn1c(=O)[nH]c2ccsc2c1=O)NCc1cccs1,"inconclusive [inhibitor, partial curve]",–
CCOc1ccc2[nH]c(=O)c(CN(CCOC)C(=O)N3CCOCC3)cc2c1,"inconclusive [inhibitor, partial curve]",–
Cc1ccc(CN2CCN(/N=C/c3cc([N+](=O)[O-])ccc3Cl)CC2)cc1,–,inactive: -5.85%
CC1(C)CC(=O)C2=C(C1)OC1=C(C(=O)CC(C)(C)C1)C2c1ccccc1,–,inactive: -3.09%
Cc1cc(/C=C2/NC(=O)NC2=O)c(C)n1-c1cccnc1,"inconclusive [inhibitor, partial curve]",–
O=C(CCn1c(=O)oc2ccccc21)N1CCc2ccccc21,"inconclusive [inhibitor, partial curve]",–
COc1ccc(NC(=O)CSc2nnc3c4c(nc(-c5ccccc5)n23)CC(C)(C)OC4)cc1,"inconclusive [inhibitor, partial curve, poor fit]",–
O=C(Nc1ccc2c(c1)OCCO2)c1ccccc1F,"inconclusive [inhibitor, partial curve, poor fit]",–
CC(=O)N=c1sc2ccccc2n1C,–,inactive: -12.3%
CCc1nc(SCc2cccnc2)c(C#N)cc1C,"inconclusive [inhibitor, partial curve]",–
CC1=C(C(=O)Nc2cccnc2)C(c2ccc3c(c2)OCO3)C2=C(CCCC2=O)N1 (stereo not drawn),"inconclusive [inhibitor, partial curve]",–
Cc1ccc(-c2csc3nc(C)n(-n4c(C)ccc4C)c(=O)c23)o1,"inconclusive [inhibitor, single point]",–
S=C(NCc1ccco1)Nc1cc(Cl)c(Cl)cc1Cl,active: 3.16 µM,–
Cc1cc(C)c2c(N)c(C(=O)N3CCCCCC3)sc2n1,active: 1.58 µM,–
CCc1cc(C(=O)NNC(=S)NC(C)c2ccccc2)cs1 (stereo not drawn),–,inactive: 0.727%
COc1cc2c(cc1NC(=O)Nc1ccccc1)oc1ccccc12,"inconclusive [inhibitor, partial curve]",–

Compound,Potency,"activity change, negative = inhibition"
c1ccc(-c2nnc(CN3CCC4(CC3)OCCO4)o2)cc1,–,inactive: -7.25%
O=C(Nc1nccs1)c1sc2ccccc2c1Cl,active: 12.6 µM,–
O=C(Nc1cccc(Cl)c1N1CCCC1)c1cccc(-c2cc3ccccc3oc2=O)c1,–,inactive: -23.3%
COc1ccc(-c2nc(CSCC(=O)N3CCc4ccccc4C3)c(C)o2)cc1OC,"inconclusive [inhibitor, partial curve]",–
CCCNC(=O)c1oc2ccc3c(c2c1C)C(=O)CC(C)(C)O3,"inconclusive [inhibitor, partial curve]",–
NC(=S)c1cc2ccc(O)cc2oc1=O,"inconclusive [inhibitor, partial curve]",–
CCOC(=O)Nc1ccc2c(C)cc(=O)oc2c1,"inconclusive [inhibitor, partial curve]",–
CCCCCn1c(-c2ccco2)nc2nc3ccccc3nc21,"inconclusive [inhibitor, partial curve]",–
COC(=O)/C(=N/Nc1ccccc1C)Sc1nnc(C(O)c2ccccc2)n1-c1ccccc1 (stereo not drawn),active: 31.6 µM,–
O=[N+]([O-])c1ccc(/C=N/Nc2nc(N3CCCC3)nc(N3CCCC3)n2)o1,–,inactive: -23.4%
C=C(C)COc1ccc(-c2ncncc2Oc2ccc(OC)cc2)c(O)c1,active: 17.8 µM,–
O=C(NCc1ccco1)c1cc2nc(-c3cccs3)cc(C(F)(F)F)n2n1,"inconclusive [inhibitor, partial curve]",–
C=CCn1c(SCc2nc3sc4c(c3c(=O)[nH]2)CCCC4)nc2ccccc2c1=O,–,inactive: -11.7%
CCOC(=O)C1CCCN(c2cc(C)nc3cc(-c4ccc(Cl)cc4)nn23)C1 (stereo not drawn),"inconclusive [inhibitor, single point]",–
c1cc(-c2cccs2)nc(-c2cccs2)c1,"inconclusive [inhibitor, partial curve]",–
CCOC(=O)c1nn(-c2ccc(OCC)cc2)c2nc(CC(C)C)c(C#N)c(=O)n12,"inconclusive [inhibitor, partial curve]",–
COc1ccc2c(c1)C(=O)c1ccccc1CO2,active: 35.5 µM,–
O=C(Nc1cccc(-c2nc3ccccc3o2)c1)c1ccc(N2C(=O)C3C4C=CC(C4)C3C2=O)cc1 (stereo not drawn),"inconclusive [inhibitor, single point]",–
Cn1c(=O)[nH]c(=O)c2c1nc(SCC(=O)O)n2CCc1ccccc1,active: 12.6 µM,–
O=c1[nH]c2cc3c(cc2cc1C(c1nnnn1C1CCCCC1)N1CCSCC1)OCCO3 (stereo not drawn),"inconclusive [inhibitor, partial curve, poor fit]",–
CCOc1ccccc1-c1nc(-c2ccc(NC(=O)c3ccc(Br)o3)cc2)no1,"inconclusive [inhibitor, single point]",–
C=Cc1c(C)/c2[n-]/c1=C\c1[n-]c(c(CC)c1C)/C=c1\[n-]c3c(c1C)C(=O)C(C(=O)[O-])C=3c1[n-]c(c(C)c1CCC(=O)[O-])\C=2.[Cu].[Na+].[Na+] (stereo not drawn),active: 25.1 µM,–
COCCn1c(=O)c(-c2cc(F)cc(F)c2)nc2cnc(N3CCNCC3)nc21,"inconclusive [inhibitor, partial curve]",–

Compound,Potency,"activity change, negative = inhibition"
Nc1ccc(-c2nc3c(Cl)cc(N)cc3[nH]2)cc1,"inconclusive [inhibitor, partial curve]",–
CCOC(=O)C1CCN(C(=O)c2cn(CCOC)c(=O)c3c2c2ccccc2n3C)CC1,"inconclusive [inhibitor, partial curve]",–
O=c1oc2ccccc2c(O)c1C=NCc1ccccn1,"inconclusive [inhibitor, single point]",–
C=CCc1cccc2cc(C(=O)Nc3ccc(S(=O)(=O)Nc4nnc(CC)s4)cc3)c(=O)oc12,"inconclusive [inhibitor, partial curve, poor fit]",–
COC(=O)c1ccc(CSc2nnc(-c3c[nH]c4ccccc34)n2-c2ccccc2)cc1,"inconclusive [inhibitor, partial curve]",–
O=C(CSc1nnc(COc2ccccc2)o1)c1ccccc1,"inconclusive [inhibitor, single point]",–
O=[N+]([O-])/C(=C\Nc1ccccc1Cl)S(=O)(=O)c1ccccc1,active: 31.6 µM,–
Cc1nn(C)c(C(=O)NNC(=S)Nc2ccc(F)cc2)c1[N+](=O)[O-],–,inactive: -12.7%
N#Cc1ccc(Cl)cc1NC(=O)COC(=O)[C@H](CCC(N)=O)NC(=O)c1ccc(F)cc1,–,inactive: -7.69%
CCN(C(=S)Nc1cc(S(=O)(=O)N2CCOCC2)ccc1Cl)c1cccc2ccccc12,"inconclusive [inhibitor, partial curve]",–
C=CCn1c(=O)c(C(=O)Nc2ccccc2O)c(O)c2ccccc21,"inconclusive [inhibitor, partial curve]",–
C[N+](C)(C)CCC(=O)c1cccc2ccccc12,active: 14.1 µM,–
CCCC1=C(C(=O)OCC)C(c2ccc(OC)c(CSc3ccccn3)c2)C(C#N)=C(N)O1 (stereo not drawn),"inconclusive [inhibitor, partial curve]",–
CC(C)C(C)(C#N)NC(=O)CSc1ncnc2sc(-c3ccccc3)cc12 (stereo not drawn),"inconclusive [inhibitor, partial curve]",–
Cc1ccc(-n2c(-c3c(-c4ccccc4)noc3C)n[nH]c2=S)cc1,–,inactive: -11.2%
N#Cc1cc2c(nc1SCC(=O)Nc1nccs1)CCCCC2,"inconclusive [inhibitor, single point]",–
Cc1cccc(N2CCN(C(=O)c3cccn4c(=O)c5c(C)c(C)sc5nc34)CC2)c1C,"inconclusive [inhibitor, partial curve]",–
CCOCCCNC(=O)c1ccc(N(C)S(=O)(=O)c2ccc(OC)cc2)cc1,active: 1.58 µM,–
CN(/N=C/C=C/c1ccccc1)c1cc(=O)n(C)c(=O)[nH]1,"inconclusive [inhibitor, partial curve]",–
C/C(=N/NC(=O)c1cccs1)c1ccc(NC(=O)COc2ccc(Cl)cc2Cl)cc1,"inconclusive [inhibitor, partial curve]",–
Cc1cccc(NC(=O)CC(C)(C)C)c1,active: 15.8 µM,–
CN1CCN(c2cc(-c3ccccc3)nc3cc(-c4ccc(F)cc4)nn23)CC1,"inconclusive [inhibitor, partial curve]",–
